Sequences and labels used below:
B1: GPR68, Q15743 (parent)
chain: MGNITADNSSMSCTIDHTIHQTLAPVVYVTVLVVGFPANCLSLYFGYLQIKARNELGVYLCNLTVADLFYICSLPFWLQYVLQHDNWSHGDLSCQVCGILLYENIYISVGFLCCISVDRYLAVAHPFRFHQFRTLKAAVGVSVVIWAKELLTSIYFLMHEEVIEDENQHRVCFEHYPIQAWQRAINYYRFLVGFLFPICLLLASYQGILRAVRRSHGTQKSRKDQIQRLVLSTVVIFLACFLPYHVLLLVRSVWEASCDFAKGVFNAYHFSLLLTSFNCVADPVLYCFVSETTHRDLARLRGACLAFLTCSRTGRAREAYPLGAPEASGKSGAQGEEPELLTKLHPAFQTPNSPGSGGFPTGRLA

Scores with a large standard error are left out. Two further conditions of the source, in which the scores hardly spread, are not listed. In variant names, del marks residues removed and ins residues inserted between the two positions. For part of these data: How much ogerin was present is not stated here.

Data set [1] covers variants of B1. Put plainly: cAMP reporter score (Enrich2 score, wild type = 0); higher = more signal; HEK293T, FACS bins.
Variants of B1 are the subject of data set [2]. In words: surface expression score (Enrich2 score, wild type = 0); higher = more signal; HEK293T, FACS bins.

For the variant C199_L201del, the cAMP reporter score was -0.411 in data set [1] (pH 5.5); -0.355 in data set [1] (pH 6); -4.35 in data set [1] (pH 6, modulator: ogerin). For the same variant, the surface expression score in data set [2] was -0.324.
As for S204F, the cAMP reporter score was -0.007 in data set [1] (pH 5.5) and -0.299 in data set [1] (pH 6, modulator: ogerin). In data set [2], the surface expression score was -1.56.
Turning to S204A, the cAMP reporter score in data set [1] (pH 5.5) was 0.568; in data set [1] (pH 6), -0.163; in data set [1] (pH 6, modulator: ogerin), 1.13; in data set [1] (pH 6.5, modulator: ogerin) it was -0.483.
As to S204Q, the cAMP reporter score in data set [1] (pH 5.5) is -1.3; in data set [1] (pH 6), 0.405; in data set [1] (pH 6, modulator: ogerin) it was -0.602; in data set [1] (pH 6.5, modulator: ogerin), -1.69. Further, in data set [2], the surface expression score is -2.81.
Turning to S204M, the cAMP reporter score in data set [1] (pH 5.5) worked out at 0.853; in data set [1] (pH 6), 2.01; in data set [1] (pH 6, modulator: ogerin), 0.975; in data set [1] (pH 6.5, modulator: ogerin) it was 1.5. The surface expression score in data set [2] is -0.729.
For S204V, the cAMP reporter score was 0.552 in data set [1] (pH 5.5); -0.957 in data set [1] (pH 6); -0.318 in data set [1] (pH 6, modulator: ogerin); -0.649 in data set [1] (pH 6.5, modulator: ogerin). In addition, the surface expression score in data set [2] stood at 0.601.
For the variant S204P, the cAMP reporter score in data set [1] (pH 5.5) was -0.413; in data set [1] (pH 6), -0.644; in data set [1] (pH 6, modulator: ogerin) it was -0.067; in data set [1] (pH 6.5, modulator: ogerin), -1.25. In data set [2], the surface expression score is -2.06.
As for S204I, the cAMP reporter score was -0.432 in data set [1] (pH 5.5) and -0.671 in data set [1] (pH 6, modulator: ogerin). For the same variant, in data set [2], the surface expression score was -0.38.
Turning to S204C, the cAMP reporter score in data set [1] (pH 5.5) is 1.35; in data set [1] (pH 6), 2.64; in data set [1] (pH 6, modulator: ogerin), 0.595. The surface expression score in data set [2] was 1.13.
With S204L, the cAMP reporter score was 0.34 in data set [1] (pH 5.5); -0.946 in data set [1] (pH 6); -0.498 in data set [1] (pH 6, modulator: ogerin). Besides, in data set [2], the surface expression score was -0.491.
In the case of S204G, the cAMP reporter score in data set [1] (pH 5.5) was -0.132; in data set [1] (pH 6) it was 0.294; in data set [1] (pH 6, modulator: ogerin) it was 0.809; in data set [1] (pH 6.5, modulator: ogerin), -0.601. The surface expression score in data set [2] was -1.2.
Take S204T: the cAMP reporter score was 1.03 in data set [1] (pH 5.5); -0.06 in data set [1] (pH 6); 0.74 in data set [1] (pH 6, modulator: ogerin); -0.985 in data set [1] (pH 6.5, modulator: ogerin). For the same variant, the surface expression score in data set [2] is -0.293.
Turning to S204N, the cAMP reporter score in data set [1] (pH 5.5) is 0.847; in data set [1] (pH 6) it was -0.559; in data set [1] (pH 6.5, modulator: ogerin), -0.847. Further, the surface expression score in data set [2] was -1.33.
As for S204Y, the cAMP reporter score in data set [1] (pH 5.5) is -1.22; in data set [1] (pH 6), -0.947; in data set [1] (pH 6, modulator: ogerin), -1.46; in data set [1] (pH 6.5, modulator: ogerin), -1.31. Also, the surface expression score in data set [2] is -2.38.
For S204R the same measures were -0.673, -1.77, -0.995, -0.771 and -1.98.
As for S204W, the cAMP reporter score is -1.78 in data set [1] (pH 5.5); 0.244 in data set [1] (pH 6); -0.588 in data set [1] (pH 6, modulator: ogerin). For the same variant, the surface expression score in data set [2] was -2.61.
Consider S204K, for which the cAMP reporter score in data set [1] (pH 5.5) is -0.236; in data set [1] (pH 6.5, modulator: ogerin), -2.3. The surface expression score in data set [2] is -0.529.
Take S204E: the cAMP reporter score in data set [1] (pH 5.5) is -1.31; in data set [1] (pH 6), -2.64; in data set [1] (pH 6, modulator: ogerin) it was -2.12; in data set [1] (pH 6.5, modulator: ogerin), -0.719.
Take S204_Y205del: the cAMP reporter score is -1.44 in data set [1] (pH 5.5); -2.01 in data set [1] (pH 6); -2.29 in data set [1] (pH 6, modulator: ogerin); -0.976 in data set [1] (pH 6.5, modulator: ogerin). For the same variant, the surface expression score in data set [2] is -2.16.
In the case of I208_L209del, the cAMP reporter score in data set [1] (pH 5.5) was -0.586; in data set [1] (pH 6), -0.815; in data set [1] (pH 6.5, modulator: ogerin), -1.5. The surface expression score in data set [2] is -2.44.
For F196_P197del, in that order: -1.39, -1.71, -1.08 and -2.39.
In the case of L200_L201insGSG, the cAMP reporter score in data set [1] (pH 5.5) is -1.54; in data set [1] (pH 6), -1.18. Besides, in data set [2], the surface expression score is -1.8.
In the case of L201V, the cAMP reporter score in data set [1] (pH 5.5) is -0.122; in data set [1] (pH 6), -0.274; in data set [1] (pH 6, modulator: ogerin), -0.414; in data set [1] (pH 6.5, modulator: ogerin) it was -0.998. Further, the surface expression score in data set [2] stood at 1.21.
On to L201W, for which the cAMP reporter score in data set [1] (pH 5.5) is -0.403; in data set [1] (pH 6.5, modulator: ogerin), -2.45. The surface expression score in data set [2] is -2.86.
L201T: the cAMP reporter score is -0.222 in data set [1] (pH 5.5); -0.492 in data set [1] (pH 6); -1.02 in data set [1] (pH 6, modulator: ogerin); -1.69 in data set [1] (pH 6.5, modulator: ogerin). The surface expression score in data set [2] amounted to 0.42.
As for L201G, the cAMP reporter score in data set [1] (pH 5.5) is -1.1; in data set [1] (pH 6) it was -0.671; in data set [1] (pH 6.5, modulator: ogerin) it was -1.69. Besides, in data set [2], the surface expression score was -0.89.
L201F: the cAMP reporter score in data set [1] (pH 5.5) is 2.46; in data set [1] (pH 6), 5.14; in data set [1] (pH 6, modulator: ogerin), 0.67; in data set [1] (pH 6.5, modulator: ogerin), 1.82.
For L201Y, the cAMP reporter score is -0.31 in data set [1] (pH 5.5); -0.551 in data set [1] (pH 6); -0.797 in data set [1] (pH 6.5, modulator: ogerin). Also, the surface expression score in data set [2] is -2.46.
With L201I, the cAMP reporter score in data set [1] (pH 5.5) is 0.885; in data set [1] (pH 6), 0.825; in data set [1] (pH 6, modulator: ogerin), 0.712; in data set [1] (pH 6.5, modulator: ogerin) it was -0.212. For the same variant, the surface expression score in data set [2] is 0.537.
As for L201Q, the cAMP reporter score is -0.119 in data set [1] (pH 5.5); -1.38 in data set [1] (pH 6); -1.02 in data set [1] (pH 6, modulator: ogerin); -0.551 in data set [1] (pH 6.5, modulator: ogerin). Besides, the surface expression score in data set [2] was -0.923.
Consider L201D, for which the cAMP reporter score in data set [1] (pH 5.5) is -0.884; in data set [1] (pH 6), -1.96; in data set [1] (pH 6.5, modulator: ogerin), -1.34. In addition, the surface expression score in data set [2] is -3.23.
With L201N, the cAMP reporter score was -2.22 in data set [1] (pH 5.5) and -1.34 in data set [1] (pH 6). Moreover, in data set [2], the surface expression score is 1.03.
For L201E, in that order: -1.34, -0.432 and -1.72.
For the variant L201K, the cAMP reporter score in data set [1] (pH 5.5) is -1.14; in data set [1] (pH 6) it was -0.65; in data set [1] (pH 6.5, modulator: ogerin), -0.493. In addition, the surface expression score in data set [2] is -1.81.
Regarding L201C, the cAMP reporter score is -0.412 in data set [1] (pH 5.5); -1.58 in data set [1] (pH 6); -0.562 in data set [1] (pH 6, modulator: ogerin); -0.703 in data set [1] (pH 6.5, modulator: ogerin). In addition, the surface expression score in data set [2] turned out to be 2.11.

These data come from the GPR68 mutational scans of Howard et al. (2025).
